Assay results: paper PMC10485003, “Antibiotic hyper-resistance in a class I aminoacyl-tRNA synthetase with altered active site signature motif” (Nature Communications, 2023)
“And” between values parts separate entries of the source, which are not always exact repeats. Equal entries are not always repeated. Where two headings read alike, the source gives them in different places. This continues a long series; more values of the same kind are listed elsewhere.

Molecular target: T1, mut-GVHH TtIleRS2 (Thermus thermophilus, UniProt P56690, G56H/H54G)
T1 construct: hexa-histidine tag (pET28b(+)) (N); made in house; host or cells: E. coli Rosetta2 (DE3)
T1 sequence (P56690 1-1043 H54G/G56H): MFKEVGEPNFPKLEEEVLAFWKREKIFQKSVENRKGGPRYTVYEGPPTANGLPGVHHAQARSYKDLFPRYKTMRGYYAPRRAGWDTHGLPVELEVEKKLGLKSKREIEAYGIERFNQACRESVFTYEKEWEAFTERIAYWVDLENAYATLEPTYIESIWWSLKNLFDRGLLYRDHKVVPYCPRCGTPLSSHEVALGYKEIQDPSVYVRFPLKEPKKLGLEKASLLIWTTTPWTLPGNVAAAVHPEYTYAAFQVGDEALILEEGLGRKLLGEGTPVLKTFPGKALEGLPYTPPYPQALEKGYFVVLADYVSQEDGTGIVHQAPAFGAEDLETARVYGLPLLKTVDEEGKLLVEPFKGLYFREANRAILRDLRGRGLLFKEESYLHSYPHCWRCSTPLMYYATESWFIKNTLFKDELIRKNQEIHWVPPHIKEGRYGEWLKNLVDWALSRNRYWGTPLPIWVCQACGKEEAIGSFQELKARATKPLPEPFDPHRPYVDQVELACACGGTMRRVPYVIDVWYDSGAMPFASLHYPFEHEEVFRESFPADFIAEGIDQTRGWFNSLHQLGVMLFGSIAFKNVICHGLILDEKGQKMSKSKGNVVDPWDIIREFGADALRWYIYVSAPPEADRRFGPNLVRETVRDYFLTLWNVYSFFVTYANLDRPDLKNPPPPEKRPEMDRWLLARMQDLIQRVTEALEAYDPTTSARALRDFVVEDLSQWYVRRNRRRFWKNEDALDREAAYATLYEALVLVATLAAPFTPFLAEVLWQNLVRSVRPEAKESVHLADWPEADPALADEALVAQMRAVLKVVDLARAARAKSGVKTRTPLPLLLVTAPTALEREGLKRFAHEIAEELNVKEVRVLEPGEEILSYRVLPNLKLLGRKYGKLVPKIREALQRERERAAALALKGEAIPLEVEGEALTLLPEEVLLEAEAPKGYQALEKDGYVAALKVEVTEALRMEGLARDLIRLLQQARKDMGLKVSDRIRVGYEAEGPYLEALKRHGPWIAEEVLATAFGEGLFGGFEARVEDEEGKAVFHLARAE
Type: biochemical
Description: L-Ile and ATP concentrations ranged from 1/10 KM to 10 KM values. When measuring the KI towards one of the substrates, the other was held in saturation (concentrations at least 10 KM). The aliquots of the reaction mixture (1–2.5 μl) were quenched in 2 volumes of 500 mM NaOAc pH = 4.5, 0.1% SDS, and formed ^32P-ATP was separated from the remaining ^32P-PPi by thin-layer chromatography on Polygram CEL 300 PEI UV254 TLC plates (Macherey-Nagel, cat: 801063) using 750 mM KH2PO4 pH=3.5, 4 M urea buffer. Visualization and quantification of the signals was performed using a Typhoon Phosphoimager 5 (General Electric) and accompanying ImageQuant™ TL software (SV: 10.2). The kinetic constants were determined using a global fit option of the competitive inhibition model of GraphPad Prism 6 software (SV: 6.01). All experiments were performed in triplicates. The kcat was determined by dividing the maximal velocity, VM, with the used enzyme concentration. […]
variable substrate (ATP or Ile) was varied in the range of 0.1 KM to 10 KM. The other substrate (Ile or ATP) was kept in excess at 5 to 10 KM. Data were globally fitted to the competitive inhibition model using GraphPad prism 6.01 for Windows software. The values represent the average value ± SD of three independent experiments. Source data are provided as a Source Data file.
(1 picture or pasted object on this page, not shown here)

Compound: C/C(=C\C(=O)OCCCCCCCCC(=O)O)C[C@@H]1OC[C@H](C[C@@H]2O[C@H]2[C@@H](C)[C@H](C)O)[C@@H](O)[C@H]1O [mupirocin]
- initial velocity vo (c(mupirocin) 10.0 μM, c(ATP) 1.0 mM): 0.01517 mM/min and 0.01349 mM/min and 0.01136 mM/min
- initial velocity vo (c(mupirocin) 10.0 μM, c(ATP) 2.5 mM): 0.023 mM/min and 0.02233 mM/min and 0.02165 mM/min
- initial velocity vo (c(mupirocin) 10.0 μM, c(ATP) 5.0 mM): 0.03471 mM/min and 0.03167 mM/min and 0.02951 mM/min
- initial velocity vo (c(mupirocin) 10.0 μM, c(ATP) 10.0 mM): 0.04436 mM/min and 0.04376 mM/min and 0.04818 mM/min
- initial velocity vo (c(mupirocin) 10.0 μM, c(ATP) 15.0 mM): 0.05284 mM/min and 0.04883 mM/min and 0.04447 mM/min
- initial velocity vo (c(mupirocin) 10.0 μM, c(Ile) 5.0 μM): 0.00401 mM/min and 0.00428 mM/min and 0.00418 mM/min
- initial velocity vo (c(mupirocin) 10.0 μM, c(Ile) 15.0 μM): 0.01215 mM/min and 0.01108 mM/min and 0.01184 mM/min
- initial velocity vo (c(mupirocin) 10.0 μM, c(Ile) 50.0 μM): 0.02589 mM/min and 0.02563 mM/min and 0.02724 mM/min
- initial velocity vo (c(mupirocin) 10.0 μM, c(Ile) 125.0 μM): 0.03919 mM/min and 0.03829 mM/min and 0.04011 mM/min
- initial velocity vo (c(mupirocin) 10.0 μM, c(Ile) 250.0 μM): 0.04599 mM/min and 0.04529 mM/min and 0.04478 mM/min
- initial velocity vo (c(mupirocin) 10.0 μM, c(Ile) 500.0 μM): 0.04934 mM/min and 0.05031 mM/min and 0.05032 mM/min
- initial velocity vo (c(mupirocin) 25.0 μM, c(ATP) 0.5 mM): 0.00319 mM/min and 0.00503 mM/min and 0.00588 mM/min
- initial velocity vo (c(mupirocin) 25.0 μM, c(ATP) 1.0 mM): 0.01067 mM/min and 0.00943 mM/min and 0.00942 mM/min
- initial velocity vo (c(mupirocin) 25.0 μM, c(ATP) 2.5 mM): 0.01907 mM/min and 0.01967 mM/min and 0.02025 mM/min
- initial velocity vo (c(mupirocin) 25.0 μM, c(ATP) 5.0 mM): 0.02681 mM/min and 0.03109 mM/min and 0.0286 mM/min
- initial velocity vo (c(mupirocin) 25.0 μM, c(ATP) 10.0 mM): 0.03917 mM/min and 0.04107 mM/min and 0.04101 mM/min
- initial velocity vo (c(mupirocin) 25.0 μM, c(ATP) 15.0 mM): 0.04504 mM/min and 0.04533 mM/min and 0.04909 mM/min
- initial velocity vo (c(mupirocin) 25.0 μM, c(Ile) 5.0 μM): 0.00364 mM/min and 0.00334 mM/min and 0.0034 mM/min
- initial velocity vo (c(mupirocin) 25.0 μM, c(Ile) 15.0 μM): 0.00892 mM/min and 0.00987 mM/min and 0.0094 mM/min
- initial velocity vo (c(mupirocin) 25.0 μM, c(Ile) 50.0 μM): 0.02231 mM/min and 0.0224 mM/min and 0.02371 mM/min
- initial velocity vo (c(mupirocin) 25.0 μM, c(Ile) 125.0 μM): 0.03603 mM/min and 0.03876 mM/min and 0.03694 mM/min
- initial velocity vo (c(mupirocin) 25.0 μM, c(Ile) 250.0 μM): 0.04218 mM/min and 0.04262 mM/min and 0.0435 mM/min
- initial velocity vo (c(mupirocin) 25.0 μM, c(Ile) 500.0 μM): 0.04923 mM/min and 0.0502 mM/min and 0.04854 mM/min
- initial velocity vo (c(mupirocin) 50.0 μM, c(ATP) 0.5 mM): 0.00358 mM/min and 0.00332 mM/min and 0.00333 mM/min
- initial velocity vo (c(mupirocin) 50.0 μM, c(ATP) 1.0 mM): 0.00717 mM/min and 0.00703 mM/min and 0.00712 mM/min
- initial velocity vo (c(mupirocin) 50.0 μM, c(ATP) 2.5 mM): 0.01524 mM/min and 0.01474 mM/min and 0.01299 mM/min
- initial velocity vo (c(mupirocin) 50.0 μM, c(ATP) 5.0 mM): 0.02517 mM/min and 0.02204 mM/min
- initial velocity vo (c(mupirocin) 50.0 μM, c(ATP) 10.0 mM): 0.02784 mM/min and 0.03461 mM/min
- initial velocity vo (c(mupirocin) 50.0 μM, c(ATP) 15.0 mM): 0.04055 mM/min and 0.04044 mM/min and 0.04151 mM/min
- initial velocity vo (c(mupirocin) 50.0 μM, c(Ile) 5.0 μM): 0.00199 mM/min and 0.00202 mM/min and 0.00228 mM/min
- initial velocity vo (c(mupirocin) 50.0 μM, c(Ile) 15.0 μM): 0.00738 mM/min and 0.00705 mM/min and 0.00715 mM/min
- initial velocity vo (c(mupirocin) 50.0 μM, c(Ile) 50.0 μM): 0.01837 mM/min and 0.01898 mM/min and 0.01914 mM/min
- initial velocity vo (c(mupirocin) 50.0 μM, c(Ile) 125.0 μM): 0.03037 mM/min and 0.03073 mM/min and 0.03042 mM/min
- initial velocity vo (c(mupirocin) 50.0 μM, c(Ile) 250.0 μM): 0.03915 mM/min and 0.03813 mM/min and 0.03919 mM/min
- initial velocity vo (c(mupirocin) 50.0 μM, c(Ile) 500.0 μM): 0.04564 mM/min and 0.04612 mM/min and 0.04628 mM/min
- initial velocity vo (c(mupirocin) 100.0 μM, c(ATP) 0.5 mM): 0.00225 mM/min and 0.00205 mM/min and 0.00262 mM/min
- initial velocity vo (c(mupirocin) 100.0 μM, c(ATP) 1.0 mM): 0.00382 mM/min and 0.00482 mM/min and 0.00529 mM/min
- initial velocity vo (c(mupirocin) 100.0 μM, c(ATP) 2.5 mM): 0.00926 mM/min and 0.01048 mM/min and 0.01057 mM/min
- initial velocity vo (c(mupirocin) 100.0 μM, c(ATP) 5.0 mM): 0.01673 mM/min and 0.01798 mM/min and 0.01705 mM/min
- initial velocity vo (c(mupirocin) 100.0 μM, c(ATP) 10.0 mM): 0.02922 mM/min and 0.02793 mM/min and 0.02936 mM/min
- initial velocity vo (c(mupirocin) 100.0 μM, c(ATP) 15.0 mM): 0.03669 mM/min and 0.03638 mM/min and 0.0343 mM/min
- initial velocity vo (c(mupirocin) 100.0 μM, c(Ile) 5.0 μM): 0.00168 mM/min and 0.00177 mM/min and 0.00091 mM/min
- initial velocity vo (c(mupirocin) 100.0 μM, c(Ile) 15.0 μM): 0.00508 mM/min and 0.00303 mM/min
- initial velocity vo (c(mupirocin) 100.0 μM, c(Ile) 50.0 μM): 0.01267 mM/min and 0.01331 mM/min and 0.00968 mM/min
- initial velocity vo (c(mupirocin) 100.0 μM, c(Ile) 125.0 μM): 0.02408 mM/min and 0.02414 mM/min and 0.02288 mM/min
- initial velocity vo (c(mupirocin) 100.0 μM, c(Ile) 250.0 μM): 0.03327 mM/min and 0.03202 mM/min and 0.03416 mM/min
- initial velocity vo (c(mupirocin) 100.0 μM, c(Ile) 500.0 μM): 0.04115 mM/min and 0.04051 mM/min and 0.04157 mM/min
- initial velocity vo (c(mupirocin) 200.0 μM, c(ATP) 0.5 mM): 0.00187 mM/min and 0.00097 mM/min and 0.00147 mM/min
- initial velocity vo (c(mupirocin) 200.0 μM, c(ATP) 1.0 mM): 0.00234 mM/min and 0.00255 mM/min and 0.00233 mM/min
- initial velocity vo (c(mupirocin) 200.0 μM, c(ATP) 2.5 mM): 0.00592 mM/min and 0.00584 mM/min and 0.00549 mM/min
- initial velocity vo (c(mupirocin) 200.0 μM, c(ATP) 5.0 mM): 0.01078 mM/min and 0.01084 mM/min and 0.01053 mM/min
- initial velocity vo (c(mupirocin) 200.0 μM, c(ATP) 10.0 mM): 0.02019 mM/min and 0.01992 mM/min
- initial velocity vo (c(mupirocin) 200.0 μM, c(ATP) 15.0 mM): 0.0254 mM/min and 0.02596 mM/min and 0.02532 mM/min
- initial velocity vo (c(mupirocin) 200.0 μM, c(Ile) 15.0 μM): 0.002918 mM/min and 0.00307 mM/min and 0.004774 mM/min
- initial velocity vo (c(mupirocin) 200.0 μM, c(Ile) 50.0 μM): 0.009512 mM/min and 0.01039 mM/min
- initial velocity vo (c(mupirocin) 200.0 μM, c(Ile) 125.0 μM): 0.01831 mM/min and 0.01883 mM/min and 0.01954 mM/min
- initial velocity vo (c(mupirocin) 200.0 μM, c(Ile) 250.0 μM): 0.02591 mM/min and 0.02913 mM/min and 0.02967 mM/min
- initial velocity vo (c(mupirocin) 200.0 μM, c(Ile) 500.0 μM): 0.03617 mM/min and 0.03736 mM/min and 0.03824 mM/min
